Structures are written as SMILES. Screen size: about 110,000 compounds; about 230 (0.21%) showed an effect of 50% or more. The list shows a part of the results.
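Further: 30 min substrate incubation versus DMSO and 10 µM JCP410 controls.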

Sequence of DPAP1 (Q8IIJ9 whole entry, looked up): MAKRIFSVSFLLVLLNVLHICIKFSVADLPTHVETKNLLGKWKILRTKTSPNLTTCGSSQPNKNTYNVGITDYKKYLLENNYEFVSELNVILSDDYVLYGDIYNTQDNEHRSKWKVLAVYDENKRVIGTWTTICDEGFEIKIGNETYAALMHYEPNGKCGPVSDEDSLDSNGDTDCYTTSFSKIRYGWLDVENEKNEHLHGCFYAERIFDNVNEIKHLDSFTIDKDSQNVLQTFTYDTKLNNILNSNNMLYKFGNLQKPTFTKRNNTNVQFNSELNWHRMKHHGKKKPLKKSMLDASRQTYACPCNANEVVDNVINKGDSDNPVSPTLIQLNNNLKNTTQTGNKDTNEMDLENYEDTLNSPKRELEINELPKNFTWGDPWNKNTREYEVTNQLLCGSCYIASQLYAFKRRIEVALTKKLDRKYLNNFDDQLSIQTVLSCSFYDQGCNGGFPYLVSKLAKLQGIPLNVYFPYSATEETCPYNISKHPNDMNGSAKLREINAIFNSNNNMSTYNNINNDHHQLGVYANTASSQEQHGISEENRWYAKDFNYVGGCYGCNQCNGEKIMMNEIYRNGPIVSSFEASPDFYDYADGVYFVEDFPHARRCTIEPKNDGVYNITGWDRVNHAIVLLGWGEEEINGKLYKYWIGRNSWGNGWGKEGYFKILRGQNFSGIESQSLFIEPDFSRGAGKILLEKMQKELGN

This test addresses DPAP1 (Plasmodium falciparum, UniProt Q8IIJ9). Nature of the test: primary screen, percent inhibition; read by cleavage of a fluorogenic dipeptide substrate; higher = more effect of the substance. Also noted: species or system P. falciparum D10 trophozoite lysates; single well.
Regarding `CC(C)C[C@H](NC(=O)c1ccc(OC2C=CCCC2)cc1)C(=O)NCC#N` (stereo partly drawn), the “% Inhibition @ 10 uM” value was found to be 1.71%. Take `CCN(CC)C(=O)CN1C(=O)COCC1=O`: the “% Inhibition @ 10 uM” value was 1.63%. On to `O=C1NC(c2ccc(OC(F)F)cc2)C(C(=O)c2ccccc2)C(O)(C(F)(F)F)N1` (stereo not drawn), for which the “% Inhibition @ 10 uM” value is listed as 0.873%. In the case of `CCOc1ccc(NC(=O)c2ccc(Cn3nc(C)cc3C)o2)cc1` it was 7.76%. As for `O=C(NCc1noc2ccccc12)Nc1cccnc1Cl`, the “% Inhibition @ 10 uM” value is given as 1.95%. In the case of `Cc1[nH]c2ccccc2c1C(C#N)(C#N)C1C(=O)c2ccccc2C1=O` it was 5.98%; in that of `CC1=CC(C)C(C2OCC(CN3CCCCC3)O2)C(C)C1` (stereo not drawn), 3.16%. With `Cc1ccc(S(=O)(=O)N(CC(=O)N2CCCCCC2)c2ccc(Cl)cc2)cc1`, the “% Inhibition @ 10 uM” value is reported as -4.43%. On to `O=C1NC(=S)/C(=C\c2ccccc2)S1`, for which the “% Inhibition @ 10 uM” value is -6.7%.

Take `CCCN(Cc1cccs1)C(=O)NCc1ccccc1`: the “% Inhibition @ 10 uM” value is on record as -2.85%. In the case of `CC1=CCC2C(=O)N(c3ncccn3)C(=O)C2C1` (stereo not drawn), the “% Inhibition @ 10 uM” value is 0.275%. Regarding `CC(=O)c1cnn(-c2cc(Oc3ccccc3C)ncn2)c1C`, the “% Inhibition @ 10 uM” value is recorded as 1.59%. For `Cc1ccccc1OCCCn1c(C(C)O)nc2ccccc21` (stereo not drawn), the “% Inhibition @ 10 uM” value was 8.71%. `CCOc1ccc(C(=O)/C=C/c2ccccc2F)cc1`: the “% Inhibition @ 10 uM” value was -7.15%. `O=C1N/C(=C/c2ccccc2)C(=O)N1Cc1ccccc1F`: the “% Inhibition @ 10 uM” value is recorded as 6.18%. Take `COc1ccc(CCNC(=O)/C=C\C(=O)O)cc1OC`: the “% Inhibition @ 10 uM” value is recorded as -2.26%.

As for `CC(C)n1c(SCC(N)=O)nc2c(oc3ccccc32)c1=O`, the “% Inhibition @ 10 uM” value was -5.54%. As for `Cn1c2c(c(=O)n(C)c1=O)CN(C1CCCCC1)CN2`, the “% Inhibition @ 10 uM” value is reported as -1.08%.

As to `O=[N+]([O-])c1cccc(CN2CCN(c3cccc(C(F)(F)F)c3)CC2)c1`, the “% Inhibition @ 10 uM” value is given as -1.92%. Turning to `O=C(Nc1ccccc1C#Cc1ccccc1)c1ccccc1F`, the “% Inhibition @ 10 uM” value is recorded as 2.91%. In the case of `O=C(COc1ccc(Br)cc1)Nc1ccc(S(=O)(=O)N2CCCC2)cc1` it was 3.35%; in that of `O=C(Nc1nccs1)c1cc2ccccc2c(=O)s1`, -4.62%; in that of `COc1ccc(-c2nnc(SC3CCOC3=O)n2-c2ccccc2)cc1` (stereo not drawn), 4.61%. In the case of `O=C(CCCc1cn(Cc2ccccc2Cl)c2ccccc12)N1CCOCC1`, the “% Inhibition @ 10 uM” value came to 4.07%.

In the case of `Cc1cc(NS(=O)(=O)c2ccc(NC(=O)COc3ccccc3C(C)C)cc2)no1`, the “% Inhibition @ 10 uM” value is 8.45%. As to `CCCNC(=O)C(C)SCc1ccccc1` (stereo not drawn), the “% Inhibition @ 10 uM” value is 0.514%. For `O=C(COc1ccccc1Cl)Nc1cnn(Cc2ccccc2)c1` the value was -4.52%; for `COc1ccccc1C(=O)Oc1cc(=O)oc2ccccc12`, 1.31%. For `NC(=S)Nc1ccc2c(c1)Nc1ccccc1CC2` the value was 2.36%. For the compound `CC1Oc2ccc(C3=NNC(=O)CC3)cc2NC1=O` (stereo not drawn), the “% Inhibition @ 10 uM” value is reported as -0.123%. `CCc1ccccc1NC(=S)NC(=O)c1ccc(C)cc1`: the “% Inhibition @ 10 uM” value was -1.62%. `CCc1ccc(C2c3c(oc4ccccc4c3=O)C(=O)N2c2nc(C)c(C(=O)OC)s2)cc1` (stereo not drawn): the “% Inhibition @ 10 uM” value is given as -1.86%. For `CC(CC(NC(=O)c1ccc(-c2ccccc2Cl)cc1)C(=O)NCC#N)c1ccccc1` (stereo not drawn) the value was 0.174%; for `CC(CCc1ccc(O)cc1)N1CCc2ccccc2C1` (stereo not drawn), 5.37%; for `CS(=O)(=O)N(CC(=O)N1CCOCC1)c1cccc(Cl)c1`, 3.24%. As for `CC(C)C(NS(=O)(=O)c1cccc2nsnc12)C(=O)Nc1nc2ccc(Cl)cc2s1` (stereo not drawn), the “% Inhibition @ 10 uM” value is -0.465%. For `O=C(CN1C(=O)c2ccccc2S1(=O)=O)N1CCCC1` the value was -4.19%. `CN(C(=O)c1cccc(C(=O)N(C)c2ccc(N)cc2)c1)c1ccc(N)cc1`: the “% Inhibition @ 10 uM” value was -4.96%. Consider `CN1CCN(CC(=O)Nc2ccc(OC(F)(F)F)cc2)CC1`, for which the “% Inhibition @ 10 uM” value worked out at 4.09%.

Turning to `CCn1nc(C)c(C2C(C#N)=C(N)Oc3[nH]nc(C)c32)c1C` (stereo not drawn), the “% Inhibition @ 10 uM” value is -3.63%.

Consider `CC/N=C1\S/C(=C\c2cc(Br)c(O)c(OC)c2)C(=O)N1CC`, for which the “% Inhibition @ 10 uM” value was -3.01%.

On to `COc1ccc(-c2c(C)nn3c(N)c(C#N)cnc23)cc1OC`, for which the “% Inhibition @ 10 uM” value was -1.11%. Consider `Cc1ccccc1CN1CCN(c2ccccc2)CC1`, for which the “% Inhibition @ 10 uM” value is given as -1.92%. Regarding `Cc1cc(C)cc(NC2=C(Cl)C(=O)N(c3ccccc3)C2=O)c1`, the “% Inhibition @ 10 uM” value came out at 1.03%. As for `COCCCNC(=O)c1cc2c(=O)n3ccccc3nc2n(C2CCCCC2)c1=N`, the “% Inhibition @ 10 uM” value was found to be 0.279%.

As for `Cc1ccccc1CNC(=O)c1oc2ccc3c(c2c1C)C(O)CC(C)(C)O3` (stereo not drawn), the “% Inhibition @ 10 uM” value is 0.107%.

In the case of `Cc1ccc(NC(=O)c2ccccc2Br)cc1C`, the “% Inhibition @ 10 uM” value is listed as -1.22%.

Take `O=C(NCc1cccnc1)C1CCN(c2nc3ccccc3n3cccc23)CC1`: the “% Inhibition @ 10 uM” value is -4.74%. In the case of `O=C(Nc1ccccc1O)c1ccc(Br)c(S(=O)(=O)N2CCCCC2)c1` it was -2.22%; in that of `CC[n+]1c(C)n(CC(O)COc2ccccc2C)c2ccccc21` (stereo not drawn), 0.147%. For `CN(CCc1ccccn1)Cc1cccc(Cl)c1` the value was -1.05%.

For the origin of these results see article PMC6919601, “Identification of Plasmodium dipeptidyl aminopeptidase allosteric inhibitors by high throughput screening” (PLoS ONE, 2019).
